Where a chain is given by its changes, count along the chain named. Results are given in words; binding and its absence hold for the method and conditions named. For some of these results: In cells and extracts the contact can be indirect. Some binding calls cover weakened binding; strength is not graded here. Sequences can lack the tags named with a protein. Blank lines part the entries; values can stand above or below the binder they belong to.
Assays:
Flag-DOK7 (human) [1] = target: T1, Flag-DOK7 (human) (UniProt Q18PE1); test: co-IP; anti-FLAG M2 affinity gel on Triton lysates (750 µg protein) of transfected MDA-MB-231 cells, overnight at 4 °C; anti-CAS blot
T1 sequence: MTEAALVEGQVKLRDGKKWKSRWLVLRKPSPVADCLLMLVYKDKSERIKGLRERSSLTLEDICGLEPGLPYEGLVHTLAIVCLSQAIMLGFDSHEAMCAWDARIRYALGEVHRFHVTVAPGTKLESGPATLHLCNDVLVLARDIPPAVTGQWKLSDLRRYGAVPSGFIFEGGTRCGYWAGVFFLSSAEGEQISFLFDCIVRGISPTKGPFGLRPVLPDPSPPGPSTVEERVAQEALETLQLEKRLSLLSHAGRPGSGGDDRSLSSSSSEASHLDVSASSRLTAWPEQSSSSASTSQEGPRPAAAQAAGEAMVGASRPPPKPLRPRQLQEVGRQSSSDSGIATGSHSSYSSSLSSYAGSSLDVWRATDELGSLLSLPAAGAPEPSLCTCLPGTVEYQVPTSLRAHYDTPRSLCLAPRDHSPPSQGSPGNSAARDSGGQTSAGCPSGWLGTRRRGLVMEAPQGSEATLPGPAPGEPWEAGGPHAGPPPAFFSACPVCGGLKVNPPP

[2] = target: T2, Flag-GLIS2 (not stated (cDNA from the BLM melanoma cell line)) (UniProt Q9BZE0); test: as above
T2 sequence: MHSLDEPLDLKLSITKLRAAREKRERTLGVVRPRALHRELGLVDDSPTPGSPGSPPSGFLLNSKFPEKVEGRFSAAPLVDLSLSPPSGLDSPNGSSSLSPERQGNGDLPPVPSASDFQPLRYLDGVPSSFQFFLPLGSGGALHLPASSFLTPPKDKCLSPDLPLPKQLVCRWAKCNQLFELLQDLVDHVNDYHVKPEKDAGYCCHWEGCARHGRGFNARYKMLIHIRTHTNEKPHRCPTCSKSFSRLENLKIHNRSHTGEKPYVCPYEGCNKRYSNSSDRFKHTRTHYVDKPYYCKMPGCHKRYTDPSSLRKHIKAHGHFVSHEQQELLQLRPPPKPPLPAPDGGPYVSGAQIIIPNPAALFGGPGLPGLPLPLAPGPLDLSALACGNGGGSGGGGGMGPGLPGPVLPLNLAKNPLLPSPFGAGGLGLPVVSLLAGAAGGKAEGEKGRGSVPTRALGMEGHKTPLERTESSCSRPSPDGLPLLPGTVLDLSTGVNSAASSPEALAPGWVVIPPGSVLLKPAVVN

Flag-DOK7 (human) [3] = target: T1, Flag-DOK7 (human); test: far-Western, overlay or dot blot; Flag proteins immunoprecipitated, eluted, run on SDS-PAGE and blotted; membrane incubated overnight with 2 µg/ml recombinant human BCAR1-GST in 1% BSA in TBST; anti-GST antibody; both purified
[4] = target: T2, Flag-GLIS2 (not stated (cDNA from the BLM melanoma cell line)); test: as above
[5] = target: T3, GST-fused CAS SH3 domain (mouse) (UniProt Q61140); test: pull-down; 20 µg GST-CAS SH3 variants on glutathione agarose incubated 2 h at 4 °C with lysates of transfected MDA-MB-231 cells; anti-Flag blot; only the target purified
T3 sequence: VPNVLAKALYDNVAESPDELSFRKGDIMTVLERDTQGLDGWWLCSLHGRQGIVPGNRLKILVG

[6] = target: T4, GST-fused CAS SH3 domain Y12E (mouse) (UniProt Q61140); test: as above
T4 sequence: T3 sequence with Y10E

[7] = target: CAS SH3 domain (GST tag removed, for NMR) (mouse) (UniProt Q61140); test: NMR solution structure; free 15N/13C-labelled CAS SH3 domain; 25 °C; 25 mM sodium phosphate pH 7.5, 100 mM NaCl, 1 mM TCEP; both purified

binding (Flag-DOK7 (human) [1]): binds
binding [2]: binds
B1: CAS/BCAR1 (in MDA-MB-231 cells) (protein, UniProt P56945 1-870)
chain: MNHLNVLAKALYDNVAESPDELSFRKGDIMTVLEQDTQGLDGWWLCSLHGRQGIVPGNRLKILVGMYDKKPAGPGPGPPATPAQPQPGLHAPAPPASQYTPMLPNTYQPQPDSVYLVPTPSKAQQGLYQVPGPSPQFQSPPAKQTSTFSKQTPHHPFPSPATDLYQVPPGPGGPAQDIYQVPPSAGMGHDIYQVPPSMDTRSWEGTKPPAKVVVPTRVGQGYVYEAAQPEQDEYDIPRHLLAPGPQDIYDVPPVRGLLPSQYGQEVYDTPPMAVKGPNGRDPLLEVYDVPPSVEKGLPPSNHHAVYDVPPSVSKDVPDGPLLREETYDVPPAFAKAKPFDPARTPLVLAAPPPDSPPAEDVYDVPPPAPDLYDVPPGLRRPGPGTLYDVPRERVLPPEVADGGVVDSGVYAVPPPAEREAPAEGKRLSASSTGSTRSSQSASSLEVAGPGREPLELEVAVEALARLQQGVSATVAHLLDLAGSAGATGSWRSPSEPQEPLVQDLQAAVAAVQSAVHELLEFARSAVGNAAHTSDRALHAKLSRQLQKMEDVHQTLVAHGQALDAGRGGSGATLEDLDRLVACSRAVPEDAKQLASFLHGNASLLFRRTKATAPGPEGGGTLHPNPTDKTSSIQSRPLPSPPKFTSQDSPDGQYENSEGGWMEDYDYVHLQGKEEFEKTQKELLEKGSITRQGKSQLELQQLKQFERLEQEVSRPIDHDLANWTPAQPLAPGRTGGLGPSDRQLLLFYLEQCEANLTTLTNAVDAFFTAVATNQPPKIFVAHSKFVILSAHKLVFIGDTLSRQAKAADVRSQVTHYSNLLCDLLRGIVATTKAAALQYPSPSAAQDMVERVKELGHSTQQFRRVLGQLAAA

binding (Flag-DOK7 (human) [3]): binds
binding [4]: binds
B2: recombinant human BCAR1 (CAS/BCAR1-GST) (protein, UniProt P56945 1-870)
chain: B1 chain

binding [5]: binds
binding [6]: no binding
B3: Flag-GLIS2 (protein, UniProt Q9BZE0 1-524)
chain: T2 sequence

binding [7]: no binding (tested: ~1 mM)
B4: GST-fused CAS SH3 domain (domain or fragment, mouse, UniProt Q61140 3-65, looked up)
chain: T3 sequence
notes: Crk-associated substrate (CAS), mouse, SH3 domain; also called GST-CAS SH3; GST-SH3; source: E. coli BL21 (DE3), pGEX-2TK, purified (glutathione agarose); not shown: GST, N-terminal, kept
